The supplement of paper PMC3334620
Whole data set: some 33,000 sequences, median “E-score (-0.5 to 0.5)” near -0.016, cut for the highest 2% near 0.31. The list shows a part of the results.

Each sequence was assayed against Cst6 (UniProt P40535) (assay: PBM E-score (8-mer binding enrichment) (E-score (-0.5 to 0.5)); higher = stronger / more preferred TF binding; most listed sequences are background and not binding sites). Conditions: protein concentration: 200 nM; construct: GST-DNA-binding domain.
Outline: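 The E-score, a modified Wilcoxon-Mann-Whitney statistic, was computed by the Universal PBM Analysis Suite for every ungapped eight-base word pooled with its reverse complement. Scans behind it were normalised with masliner after bound GST-tagged yeast transcription factors were detected with fluorescent anti-GST. The proteins, at about 100-200 nM, had been applied to universal all-10-mer Agilent arrays made double-stranded by primer extension.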

| Sequence | PBM E-score |
| --- | --- |
| CGATGGAA | 0.107 |
| ACAGCCAG | -0.088 |
| ATTCATCA | 0.218 |
| GAAGACCA | -0.213 |
| ATAAGAGC | 0.0402 |
| GAGTAGAA | 0.0886 |
| ACGCGGCC | 0.0568 |
| CGGAAGGC | -0.255 |
| CCTGCTAA | -0.222 |
| GCGCACCA | -0.0013 |
| AGCCGTAA | 0.259 |
| TCTAAACA | 0.0833 |
| GTATGTCA | 0.422 |
| GAGCAGCC | -0.0952 |
| CTATGCAG | 0.00763 |
| AAAATTGT | 0.151 |
| AAGAGGAT | -0.116 |
| ACAAGATC | -0.0252 |
| GAGGGCAA | 0.0197 |
| TACTGGCA | -0.0625 |
| CACCTAGA | -0.148 |
| TACTCGGA | 0.0206 |
| AACCTACA | 0.0728 |
| AGGAACAC | 0.0247 |
| ATGCGACG | 0.106 |

| Sequence | PBM E-score |
| --- | --- |
| AGTCATTC | 0.0571 |
| CTTACGAA | 0.119 |
| AGTCAGGA | -0.168 |
| AGGGAAGC | -0.302 |
| TCGAGAAA | 0.108 |
| GCGGGGAA | -0.0925 |
| CTGCCAAG | 0.0469 |
| AGAAAAAG | 0.00776 |
| GAAGGCCC | -0.252 |
| CCTTCCCG | -0.29 |
| CGGGCCGA | -0.167 |
| CCGAATGC | -0.0132 |
| TCCTAGCA | -0.162 |
| TTCAAGAA | 0.162 |
| GGTTGTAA | 0.0531 |
| GTCTTTAA | 0.0991 |
| CCGTATAG | 0.0115 |
| ATTTTATG | 0.248 |
| CTACGTGC | -0.0624 |
| CCAGTACG | 0.0129 |
| GCAGAAGA | 0.0891 |
| AGACATAA | 0.0351 |
| ATCGCGGG | -0.0694 |
| AGTCTGAG | -0.113 |
| AGTTAAGG | -0.0423 |

| Sequence | PBM E-score |
| --- | --- |
| ACATAGCA | 0.164 |
| ACTGCTCG | -0.072 |
| CTATTTAA | -0.0505 |
| TAGGAATA | 0.0565 |
| GAGTACGA | -0.0415 |
| GCCATGGA | -0.156 |
| TCGGCTCA | -0.0753 |
| GCAGTATA | 0.0148 |
| CGTCGCGA | 0.109 |
| ACCTGGCT | -0.19 |
| AACATGAC | 0.272 |
| TATCGGAA | 0.0336 |
| GTCGCTTA | -0.0207 |
| GTGCCCTA | -0.22 |
| AATCCCAG | -0.152 |
| CTAGCGAC | -0.105 |
| AGTCCATC | -0.167 |
| AGGACTAG | -0.171 |
| GATGCACC | -0.163 |
| GATTGCCC | -0.14 |
| CGTTTGTC | 0.124 |
| CTAACCAC | -0.0139 |
| ACTGCTTC | -0.151 |
| AATGTTCA | 0.0469 |
| CAAGAAGG | -0.00479 |

| Sequence | PBM E-score |
| --- | --- |
| GTGGACCA | -0.107 |
| CGGGGGCC | -0.372 |
| CACTCTGC | 0.0254 |
| AGACTGAT | -0.00128 |
| GGTCGGTA | -0.121 |
| CGTCAAGC | 0.0721 |
| GTCCGTGA | 0.0214 |
| CTAAAACC | -0.046 |
| CGGCCTAG | -0.245 |
| ACTACTCA | 0.209 |
| ACGTACGT | 0.311 |
| ACCGAGCG | -0.103 |
| CGCGTCGA | 0.155 |
| ACAGCACG | -0.0932 |
| AAAGGCAC | 0.189 |
| AGTACAAG | -0.133 |
| AACACCAA | 0.0956 |
| ATCATTTC | 0.246 |
| ATACAACG | 0.163 |
| CTTAATTA | 0.177 |
| CAGACTAC | -0.17 |
| CAACCTTA | 0.0972 |
| ATAGACTC | -0.224 |
| CAAGCCAA | -0.139 |
| GAGTAGCA | 0.0442 |

| Sequence | PBM E-score |
| --- | --- |
| AGGCCTGG | -0.271 |
| ACACAGCG | 0.221 |
| TAGTCCAA | -0.124 |
| CGTTCCAC | -0.235 |
| AGTACTGG | -0.138 |
| ACATCGTA | 0.0384 |
| ATTAAAGA | 0.222 |
| ATGTTTGC | -0.0666 |
| TCGTTCCA | -0.127 |
| ACATACGA | 0.239 |
| TCCGTGCA | 0.102 |
| GTGATGGA | 0.0419 |
| ATCAGCAG | 0.162 |
| ACAGCGTC | 0.0143 |
| CACTGGAG | -0.22 |
| AGGAGCCT | -0.209 |
| ACATCCGG | -0.168 |
| GCTTGGGA | -0.149 |
| CGGACGCC | 0.0289 |
| AATGGCCT | -0.00837 |
| GGATGGAA | -0.154 |
| CCAAGTTA | 0.0417 |
| TTCCGAAA | -0.0146 |
| ATTTAATC | 0.182 |
| GGAATAAA | 0.0682 |

| Sequence | PBM E-score |
| --- | --- |
| CGGACCTA | -0.151 |
| GGGTCCAA | -0.189 |
| ATCATAAA | 0.195 |
| TAAGTACA | 0.0404 |
| ACACTCCC | -0.177 |
| CATTTTCA | 0.268 |
| CAGGAATA | -0.0222 |
| GGTCCGTA | -0.208 |
| AACTGGGT | -0.177 |
| AAATGCCC | -0.145 |
| ACCTTCCG | -0.169 |
| ACGATTTG | 0.143 |
| CTATTAGC | 0.162 |
| CGTCTGAA | -0.0204 |
| AATTTTAA | 0.25 |
| GGTTCGCA | -0.19 |
| CTGGCTTA | -0.135 |
| CTGTACCC | -0.275 |
| GGTAAAGA | 0.0496 |
| AATGAGTA | 0.0942 |
| GCGGTGCA | -0.261 |
| ATAGCCAA | 0.0258 |
| ATTAAATG | 0.315 |
| CCCCACCC | 0.0755 |
| CCCTACGC | -0.28 |

| Sequence | PBM E-score |
| --- | --- |
| CTTCAGAA | -0.0204 |
| GCCTGAAC | -0.253 |
| GGGCCACC | -0.235 |
| GTGTTTCA | 0.0262 |
| AAAGGAAA | 0.196 |
| ATGTAACA | 0.279 |
| CTCGGCGA | 0.0893 |
| GCTATAAC | -0.145 |
| AGGAAGGC | 0.0249 |
| ACCTTCGG | -0.088 |
| ATCAGCCC | -0.146 |
| CCATATTC | -0.0864 |
| CAATGTCC | -0.129 |
| CGGTATAC | -0.249 |
| GGTATGCA | -0.0783 |
| GCCTCACC | -0.0748 |
| GGCTCGAC | -0.0539 |
| CAGTATGC | -0.064 |
| TATCTCGA | 0.133 |
| AGTGTAAA | 0.122 |
| CGCTTGGA | -0.207 |
| AGAGGCCT | -0.258 |
